From paper PMC4336329 (PLoS ONE, 2015) come the findings set out here.

Hit rate of the full screen: of about 310,000 compounds, about 14,000 (4.5%) showed an effect of 50% or more. Effects have a minus sign here. The list shows a part of the results. Where a SMILES comes first, the peptide text is derived from it. [ ]: non-standard residue; d: D form. The star is where a group is joined. ξ: configuration not given here. Cbz = O=C(OCc1ccccc1)*; ξP = O=C(O)C1CCCN1
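Further: peak tail current of the secondary pulse compared with the same well before compound.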

Sequence of human ether-à-go-go-related gene (hERG) potassium channel (Q12809 whole entry, looked up): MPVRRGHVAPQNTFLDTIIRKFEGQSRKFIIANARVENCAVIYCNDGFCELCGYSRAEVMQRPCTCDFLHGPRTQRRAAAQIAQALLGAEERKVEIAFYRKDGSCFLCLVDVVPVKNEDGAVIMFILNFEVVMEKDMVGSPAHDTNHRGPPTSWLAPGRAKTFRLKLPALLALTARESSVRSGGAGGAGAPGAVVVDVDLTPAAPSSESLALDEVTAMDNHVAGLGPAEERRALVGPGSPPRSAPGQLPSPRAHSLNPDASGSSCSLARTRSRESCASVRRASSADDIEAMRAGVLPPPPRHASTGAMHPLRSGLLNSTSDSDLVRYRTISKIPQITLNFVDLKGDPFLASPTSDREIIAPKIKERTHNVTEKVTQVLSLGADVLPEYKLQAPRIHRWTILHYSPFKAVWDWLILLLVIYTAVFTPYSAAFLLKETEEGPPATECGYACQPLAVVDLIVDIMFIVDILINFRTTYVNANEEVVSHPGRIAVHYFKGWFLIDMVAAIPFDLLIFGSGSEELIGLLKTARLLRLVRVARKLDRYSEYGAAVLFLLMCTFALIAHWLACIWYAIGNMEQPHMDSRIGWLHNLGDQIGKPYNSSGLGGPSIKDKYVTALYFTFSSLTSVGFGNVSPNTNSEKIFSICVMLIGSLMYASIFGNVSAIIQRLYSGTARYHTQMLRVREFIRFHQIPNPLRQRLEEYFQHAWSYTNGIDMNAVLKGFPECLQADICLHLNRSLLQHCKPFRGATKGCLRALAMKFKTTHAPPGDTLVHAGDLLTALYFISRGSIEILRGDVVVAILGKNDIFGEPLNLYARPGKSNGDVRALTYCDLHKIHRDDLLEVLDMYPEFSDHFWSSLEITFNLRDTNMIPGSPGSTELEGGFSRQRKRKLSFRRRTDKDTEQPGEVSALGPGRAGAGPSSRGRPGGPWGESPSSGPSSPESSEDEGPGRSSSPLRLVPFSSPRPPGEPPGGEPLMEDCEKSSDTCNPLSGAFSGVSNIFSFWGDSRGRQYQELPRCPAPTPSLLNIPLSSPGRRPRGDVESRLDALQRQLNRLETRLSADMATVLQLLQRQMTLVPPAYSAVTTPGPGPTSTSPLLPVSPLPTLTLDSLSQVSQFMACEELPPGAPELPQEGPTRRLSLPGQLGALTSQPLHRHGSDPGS

This assay addresses human ether-à-go-go-related gene (hERG) potassium channel (human, UniProt Q12809). As to the kind of experiment: primary screen, population patch clamp on CHO cells stably expressing hERG.
As for `CC(C)N(C(=O)COC(=O)[C@@H]1CC(O)CN1S(=O)(=O)c1ccccc1[N+](=O)[O-])C(C)C` (stereo partly shown), the “hERG current change (%, negative = inhibition) at 10uM” value is on record as 12.1%. The value for `CC[C@@H](C)[C@H](NC(=O)C1CCN(C(=O)[C@@H](NS(=O)(=O)c2ccc(C)cc2)C(C)C)CC1)C(=O)O` was 17.5%; that for `COc1ccc(NC(=O)CN(C)C(=O)C(C)Oc2ccc(Br)cc2)cc1` (stereo not shown) was -17%; that for `CC(C)CCC1(C)NC(=O)N(CC(=O)c2ccc[nH]2)C1=O` (stereo not shown) was -10.8%. The value for `O=C(COC(=O)Cn1cnc2ccccc21)Nc1ccc2c(c1)C(=O)c1ccccc1C2=O` was 2.35%; that for `CCN(CC)CCC#CC1(O)c2ccccc2-c2ccccc21` was 2.38%.

Take `COc1ccc(OC)c(/C=C2\NC(=O)NC2=O)c1`: the “hERG current change (%, negative = inhibition) at 10uM” value is 8.95%. The value for `CCn1cc(C(=O)NC2CCCCC2C)c(=O)c2ccc(C)nc21` (stereo not shown) was 3.04%. As for `CCCn1c(SCC(=O)NCC(=O)Nc2ccc(F)c(F)c2F)nc2ccccc2c1=O`, the “hERG current change (%, negative = inhibition) at 10uM” value is -9.04%. Then `CN1CCN(CCC(=O)N/N=C/c2ccccn2)CC1`, with 21.3%; and `COCCNC(=O)CSc1nc2ccccc2c(=O)n1CCCC(=O)NCc1ccccc1`, with -33.9%. The value for `CC12CCCCC1c1ccccc1C(=NCC(=O)O)N2` (stereo not shown) was -36.4%. Then `COc1ccc(NC(=O)CSCC(=O)Nc2cc(Cl)ccc2N2CCCC2)cc1`, with -24.1%; and `Cc1cc(C(=O)NCc2ccc3c(c2)OCO3)c(C)o1`, with 0.427%. `CCOc1ccc(C(=O)NC(=S)Nc2ccc(NC(=O)C(C)C)cc2)cc1[N+](=O)[O-]`: the “hERG current change (%, negative = inhibition) at 10uM” value is listed as -19.3%. Consider `O=C(NC1CCCC1)NS(=O)(=O)c1ccccc1Cl`, for which the “hERG current change (%, negative = inhibition) at 10uM” value came to 6.5%.

For `Brc1ccccc1`, the “hERG current change (%, negative = inhibition) at 10uM” value worked out at 4.67%. Then `CCn1c(SCc2nc3ccccc3s2)nnc1-c1cccs1`, with -60%; and `CC1CCC2C(C1)c1sc(=O)[nH]c1SC2(C)C` (stereo not shown), with -4.84%; and `Cc1ccc(S(=O)(=O)C(C#N)=C2N(C)c3ccccc3N2C)cc1`, with 50.5%. As for `O=C(CCS(=O)(=O)c1cccc2nonc12)N1CCN(c2ccc(F)cc2)CC1`, the “hERG current change (%, negative = inhibition) at 10uM” value is on record as -60.8%. Then `O=C(O)CNC(=O)C1CCCN1C(=O)CNC(=O)OCc1ccccc1` (stereo not drawn) (Cbz-Gly-[ξP]-Gly-OH), with 10.9%. Turning to `CC(=O)N1CCC(N2CCN(Cc3ccc(C)cc3)C(CCO)C2)CC1` (stereo not shown), the “hERG current change (%, negative = inhibition) at 10uM” value is reported as -7.68%.

As to `COC(=O)C1=C(C)N(c2ccc(C(=O)OC)cc2)C(=O)C1`, the “hERG current change (%, negative = inhibition) at 10uM” value worked out at 22.3%.

For the molecule `O=C(CSc1nc2c([nH]c3ccccc32)c(=O)n1-c1ccccc1)N1CCOCC1`, the “hERG current change (%, negative = inhibition) at 10uM” value is given as 5.52%. The value for `CCc1ccc(C2=NN(S(C)(=O)=O)C(c3cccs3)C2)cc1` (stereo not shown) was -13.3%; that for `COC(=O)c1cccc(NC(=O)c2ccccc2)c1` was -14.8%. Then `O=C(CCn1cccn1)N1CCCC(N2CCN(c3cccc(Cl)c3)CC2)C1` (stereo not shown), with -54.1%.

Take `Cc1ccc(N2C(=O)CN(Cc3sccc3C)C2=S)cc1C`: the “hERG current change (%, negative = inhibition) at 10uM” value is given as -10.6%.

As for `CCc1ccc(CN2CCC(N3CCC(C(=O)N4CCCC4)CC3)CC2)o1`, the “hERG current change (%, negative = inhibition) at 10uM” value is given as -70%. Then `CC(=O)c1cc2c(s1)-c1cc(F)ccc1OC2`, with -19.8%; and `O=C(O)CCC(=O)NCc1ccc(F)cc1`, with -7.12%. Then `Cc1ccc(-c2csc3ncnc(NCCC(=O)O)c23)cc1.Cl`, with 2.06%; and `O=C(CCn1ccc2ccccc21)NC1CCCc2ccccc21` (stereo not shown), with -14.3%; and `O=C(Nc1ccccc1)OCCN1CCN(Cc2ccccc2)CCC1=O`, with -9.85%. Then `COc1cc(C(=S)N2CCOCC2)ccc1OC(=O)/C=C/c1ccco1`, with 13%; and `S=c1sc2ccccc2n1CCc1ccncc1`, with -41.9%; and `Oc1ccc(C=NC2CCCCC2)cc1`, with 9.67%. `Cn1c(SCC(=O)N2CC(=O)Nc3ccccc32)nc2ccccc2c1=O`: the “hERG current change (%, negative = inhibition) at 10uM” value is recorded as -5.57%.

On to `Cc1ccc(-n2c(C)c(C)c3c(N)ncnc32)cc1`, for which the “hERG current change (%, negative = inhibition) at 10uM” value is given as 3.79%. As for `O=C(/C=C/c1ccc(OCCCF)cc1)Nc1ccnc(-c2ccncc2)n1`, the “hERG current change (%, negative = inhibition) at 10uM” value was determined as 7.22%.

Turning to `Cc1cc(C)c(NC(=O)c2sc3nc(C)[nH]c(=O)c3c2C)c(C)c1`, the “hERG current change (%, negative = inhibition) at 10uM” value is on record as 4.73%. The value for `CCCCn1c(C(C)NC(=O)c2cccs2)nc2ccccc21` (stereo not shown) was 16.2%.

On to `CCn1c(C)cs/c1=N\S(=O)(=O)c1ccccc1`, for which the “hERG current change (%, negative = inhibition) at 10uM” value is 2.93%.

Take `CCCn1c(=S)[nH]c2ccc(C(F)(F)F)cc21`: the “hERG current change (%, negative = inhibition) at 10uM” value is recorded as -42.7%. As to `Cc1ccn2c(=O)nc(SCC(=O)N3N=C(c4cccs4)CC3c3ccc(F)cc3)nc2c1` (stereo not shown), the “hERG current change (%, negative = inhibition) at 10uM” value is -65%. With `COc1cc2c(cc1OC)C(=O)N1[C@H]3c4cc(Cl)ccc4OC[C@@H]3[C@H](c3ccccc3)[C@]1(C)C(=O)N2`, the “hERG current change (%, negative = inhibition) at 10uM” value came out at 6.41%.

Take `CCOc1cccc(N(C(=O)CCC(=O)Nc2cc(C)on2)C(C(=O)NC(C)(C)C)c2ccc(OC)cc2)c1` (stereo not shown): the “hERG current change (%, negative = inhibition) at 10uM” value was -13.8%.

For `Cc1cccc(OCC(=O)Nc2ccccc2F)c1`, the “hERG current change (%, negative = inhibition) at 10uM” value was determined as 18.6%. Then `Cn1c(Cl)nc2c1c(=O)n(Cc1cccc(Br)c1)c(=O)n2C`, with -35.3%.

In the case of `CCOC(=O)C1CCCN(S(=O)(=O)c2ccc(OC)cc2)C1` (stereo not shown), the “hERG current change (%, negative = inhibition) at 10uM” value turned out to be 4.7%. Then `Cc1cc(NC(=O)C(C)Oc2ccc(Cl)cc2Cl)no1` (stereo not shown), with -21.6%; and `COc1cc(C(=O)NCCOc2cccc(C)c2)c(Br)c(OC)c1OC`, with 1.24%; and `CCOc1cc(CNCCO)cc(Br)c1OCc1cccs1.Cl`, with -26.4%.

Turning to `CCOC(=O)c1c(NC(=O)c2ccccc2C)sc2c1CC(C)(C)OC2`, the “hERG current change (%, negative = inhibition) at 10uM” value stood at 1.74%. As to `CC(C)CCNC(=O)C1CCCCN1S(=O)(=O)c1ccc(F)cc1` (stereo not shown), the “hERG current change (%, negative = inhibition) at 10uM” value came to 2.06%. The value for `O=C(CCN1C(=O)/C(=C/c2cccs2)SC1=S)N1CCCCC1` was 8.58%; that for `CNC(=O)C(=O)Nc1nc(C23CC4CC(CC(C4)C2)C3)cs1` was 4.55%.
